The source gives no read counts; variants with many changes may rest on few reads.
B1: LINE1-mini (parent)
chain: GGCAGAGCUCAACACAGCGUGGCAAAGUGGCUGUGGCUAGACUGCC

Variants of: B1
Test: self-cleavage, relative activity (ratio to wild type); higher = more cleavage; in vitro, sequencing; the parent is a self-cleaving ribozyme

Variant | self-cleavage
C10A G22A G30A | 0.1
C10G C13A U43A | 0.02
C10A G40C C46A | 0.04
C10A C37A U38C C45A | 0.04
C10A G30U U38C | 0.06
C10G A25G C31A | 0.05
C10A G22A U32C | 0.02
C10A G27U G29U | 0.05
C10G A26C U32G C37G | 0.04
C10G A11C G29A G36C | 0.02
C10A U28C C31G C42G | 0.01
C10A G44C C45A | 0
C10G A11U A25G G40C | 0.01
C10A G36C C46A | 0
C10A G22U G36C | 0.03
C10A G36C G44U | 0.03
C10G A16G G40C | 0.01
C10G A16C U43A | 0.01
C10G A11G G35U | 0.05
C10A U32G U43A | 0.06
C10G A11C G21U G27A G33A | 0.02
C10A G19A A25C | 0.02
C10A G22U C37A | 0
C10A G21A G36U | 0.01

Variant | self-cleavage
C10A G21U C37G A41U | 0.01
C10A G22U C42G | 0.01
C10A G17C A25G | 0.03
C10G A11U U34C U38A | 0.01
C10A G27C U34G G36U | 0.02
C10G C13G C45A | 0.02
C10G C13G G17C A24U C37G | 0.01
C10G C13G G21C U34C | 0.01
C10G A12G C31U | 0.03
C10A G44A C45A C46A | 0.02
C10A U34G C37U | 0.01
C10A U28A U32G | 0.06
C10A G17U G19C G36U | 0.01
C10A G17A G27U | 0.06
C10A U20A G21U G29C C45G | 0.02
C10G A14G C23U | 0.02
C10A C31U G36A | 0
C10A U20A C23U C37A C42U U43C C46G | 0
C10A C37U U38C | 0.02
C10A G17U A39U | 0.27
C10G A12C C31A U32C G36C C37A C46G | 0.01
C10G A16U A24U G33C | 0
C10A G35A C37G | 0
C10A G40A A41U | 0.01

Variant | self-cleavage
C10A G29A A39C | 0.01
C10A G33C G35A G44A | 0.02
C10A C23G G27U G40A C42A | 0.01
C10A G27U C37A G40A | 0.01
C10G A12U G19C G21C G29U | 0
C10G A26U U34C | 0.01
C10A U20C G44C | 0.1
C10A U20A G36C | 0
C10G A11G C18G | 0.02
C10G A24C G30U U32G G33U | 0.01
C10G A11U G35U | 0.02
C10A G17A G19A G35U | 0.02
C10G C15A C45G | 0.02
C10A G17A A24U A26C | 0.03
C10A G22A A25C G30U C42U | 1.03
C10A G33A A39U | 0.01
C10A G33A A39C | 0
C10G A14U G36C | 0.03
C10G C13A A26U U38A | 0.03
C10A G30A C45G | 0.02
C10A G19C G40C | 0.03
C10A U20G C31U G33A | 0.01
C10G C13U A41U C46A | 0.01
C10G A24U U34A | 0.04

Variant | self-cleavage
C10A G19U G36A | 0.02
C10G A16C G17A | 0.01
C10A C23G C31A C37U | 0
C10A G35U A41U | 0.07
C10G A16U C31U | 0
C10A G21U U34A G40C A41C | 0.01
C10A U20A G35U G36C | 0.01
C10A G19A G36U A41U | 0.01
C10A G22U A24G | 0.02
C10G A41G C46G | 0.03
C10G C13A C15U | 0.03
C10A G30U G36C | 0
C10A G30U G36A | 0.03
C10A G21U A26U | 0.03
C10A G33A G35A | 0.03
C10A U28G A41U | 0.01
C10A U34G C37G A39G G44A | 0.01
C10G A16U U20G U34A | 0.03
C10A G27A C42U | 0.04
C10A C31U C37U | 0.01
C10G C13G C31U G33U | 0.01
C10G A11U U28G | 0.03
C10A G36U C46U | 0.03
C10G A12G G27A U32C G44C | 0.01

Variant | self-cleavage
C10G A14U C18G U20A G22U A26U G30A G44A C45G | 0.01
C10A U43G C45A | 0.07
C10G A12U C13G U20A A24C | 0.01
C10A U20A U32A | 0.02
C10G A16G G40U A41C | 0.01
C10A G30C U38C | 0.21
C10A G29C G44A | 0.02
C10A G17U A26C G29U | 0.09
C10A G27U A41G | 0.03
C10A G17C G21U U38C C42U | 0.03
C10A G22C C31U G44A | 0.03
C10A U20C A24U | 0.01
C10A C37U C42G | 0.02
C10G A14G C18U U28C C45G | 0.02
C10G A12C G21U U43C | 0
C10G C13G G21A | 0.06
C10G C13A C15A G17U | 0.01
C10A G17U A24U G36U | 0.02
C10A G22U U28C C42G | 0
C10G A26C G27U | 0.03
C10A G22U G29U C42U G44A | 0.01
C10A G17A C46U | 0.05
C10A G17C C31U U32C U38C | 0.02
C10A G35C A41U | 0.01

Variant | self-cleavage
C10A U20C G33A | 0.01
C10A G22C C31U U43A | 0.02
C10G A11U A26G C42U | 0.03
C10A G21A C37U | 0.02
C10A C31U G40C | 0.03
C10A G29U A39C C45A | 0
C10A G22U A25C | 0.06
C10A G22C A26U U28C | 0.02
C10A G19U U20A G30A | 0.06
C10A G27A G30A C37A | 0.01
C10G A14U A16U | 0.01
C10A G29A C37A G44U C46G | 0
C10A G29U C37A | 0
C10A G17U G30A | 0.05
C10A G19U C23U G27U | 0.09
C10A C23U G40U | 0
C10A G19A G36A | 0.03
C10A C37A C42A | 0.01
C10A C37A G40C | 0.05
C10G A41G U43C | 0.02
C10G A25C G27U C42A | 0.01
C10G C13U G27U G36U G40C C45U | 0
C10A C23G C37A U43A | 0
C10A U32G C42U | 0.01

Variant | self-cleavage
C10A C31U U38C | 0.06
C10A G19A U20C G22U | 0.04
C10G A16C A24G G40U | 0.02
C10A U32G C45G | 0.02
C10A U32G C45U | 0.01
C10G A16U U20G C31A C42G | 0
C10G A16U U32G | 0.02
C10G C13U G22U G35A | 0.03
C10A C23U A25G | 0.03
C10G A14G G36C U43A | 0.01
C10A G29U G40U | 0.01
C10A G29U U43C | 0.02
C10G A16G G29A C45A | 0.06
C10A G27C G29U U43A | 0.02
C10A G22C C31U U32G | 0.04
C10A G19U A25G U28C G36A | 0.01
C10A G21C A26U G35U U38A | 0.01
C10A G22U C23G U34G | 0.22
C10A U28C C31U G35U G36A | 0.02
C10G A24C G29U | 0.16
C10A G19C A25C | 0.02
C10A G17U A24C G27A | 0.02
C10A G19C G22U | 0
